Our source for the binding values is paper PMC11893792.

Chains of the proteins cited; added tags and fusions are not shown. Lines headed by an entry give the natural chain unless they say otherwise; changes in a name come on top. A line that says so, or that is headed by a name, gives the form on record, which may keep a tag or linker.
UniProt Q9Z0W5: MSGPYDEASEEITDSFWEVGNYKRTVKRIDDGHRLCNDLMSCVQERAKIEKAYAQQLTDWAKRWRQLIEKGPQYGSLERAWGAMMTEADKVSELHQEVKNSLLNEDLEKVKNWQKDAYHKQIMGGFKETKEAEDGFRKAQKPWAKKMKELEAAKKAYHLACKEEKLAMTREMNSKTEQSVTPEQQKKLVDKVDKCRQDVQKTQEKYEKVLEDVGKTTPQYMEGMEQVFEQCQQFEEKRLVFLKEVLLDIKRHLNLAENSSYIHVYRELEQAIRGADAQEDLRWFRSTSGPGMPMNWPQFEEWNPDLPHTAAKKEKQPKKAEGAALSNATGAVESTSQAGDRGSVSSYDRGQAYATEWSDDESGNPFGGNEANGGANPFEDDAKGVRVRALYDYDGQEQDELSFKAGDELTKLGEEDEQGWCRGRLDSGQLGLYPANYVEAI
UniProt Q14B46: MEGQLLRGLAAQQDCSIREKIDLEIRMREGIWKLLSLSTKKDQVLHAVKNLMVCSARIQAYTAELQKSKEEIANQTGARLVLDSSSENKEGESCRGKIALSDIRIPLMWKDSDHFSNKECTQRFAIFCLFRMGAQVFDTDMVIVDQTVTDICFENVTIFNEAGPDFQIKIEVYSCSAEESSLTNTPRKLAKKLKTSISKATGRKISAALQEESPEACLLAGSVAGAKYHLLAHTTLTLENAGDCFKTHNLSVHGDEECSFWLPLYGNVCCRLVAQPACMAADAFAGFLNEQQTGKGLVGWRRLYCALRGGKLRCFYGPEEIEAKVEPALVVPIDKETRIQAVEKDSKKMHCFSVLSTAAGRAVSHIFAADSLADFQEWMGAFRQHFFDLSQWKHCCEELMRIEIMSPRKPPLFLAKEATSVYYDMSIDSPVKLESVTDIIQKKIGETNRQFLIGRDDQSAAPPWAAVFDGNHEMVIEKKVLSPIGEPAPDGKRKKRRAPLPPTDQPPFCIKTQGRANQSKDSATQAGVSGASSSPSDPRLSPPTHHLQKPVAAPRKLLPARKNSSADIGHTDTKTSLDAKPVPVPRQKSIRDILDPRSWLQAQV
rhotekin2^∆KRAP (untagged full-length rhotekin2 lacking amino acids 492-503) (Q14B46-1, form named): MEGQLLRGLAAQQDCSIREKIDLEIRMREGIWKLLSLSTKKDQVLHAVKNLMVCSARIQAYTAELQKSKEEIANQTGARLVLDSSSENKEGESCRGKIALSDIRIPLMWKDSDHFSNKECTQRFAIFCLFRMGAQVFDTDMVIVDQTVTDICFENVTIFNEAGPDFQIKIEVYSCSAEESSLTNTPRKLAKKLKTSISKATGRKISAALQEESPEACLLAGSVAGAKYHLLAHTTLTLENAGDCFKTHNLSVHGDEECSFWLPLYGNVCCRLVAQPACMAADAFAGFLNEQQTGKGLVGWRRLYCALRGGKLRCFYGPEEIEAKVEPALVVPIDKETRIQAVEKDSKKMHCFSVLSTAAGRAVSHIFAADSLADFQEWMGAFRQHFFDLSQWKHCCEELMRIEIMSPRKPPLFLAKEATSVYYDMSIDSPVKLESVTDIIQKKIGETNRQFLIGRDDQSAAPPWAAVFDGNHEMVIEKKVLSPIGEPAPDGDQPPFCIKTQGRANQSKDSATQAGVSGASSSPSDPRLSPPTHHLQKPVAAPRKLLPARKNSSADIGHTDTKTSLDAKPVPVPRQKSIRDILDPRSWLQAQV
UniProt O35303: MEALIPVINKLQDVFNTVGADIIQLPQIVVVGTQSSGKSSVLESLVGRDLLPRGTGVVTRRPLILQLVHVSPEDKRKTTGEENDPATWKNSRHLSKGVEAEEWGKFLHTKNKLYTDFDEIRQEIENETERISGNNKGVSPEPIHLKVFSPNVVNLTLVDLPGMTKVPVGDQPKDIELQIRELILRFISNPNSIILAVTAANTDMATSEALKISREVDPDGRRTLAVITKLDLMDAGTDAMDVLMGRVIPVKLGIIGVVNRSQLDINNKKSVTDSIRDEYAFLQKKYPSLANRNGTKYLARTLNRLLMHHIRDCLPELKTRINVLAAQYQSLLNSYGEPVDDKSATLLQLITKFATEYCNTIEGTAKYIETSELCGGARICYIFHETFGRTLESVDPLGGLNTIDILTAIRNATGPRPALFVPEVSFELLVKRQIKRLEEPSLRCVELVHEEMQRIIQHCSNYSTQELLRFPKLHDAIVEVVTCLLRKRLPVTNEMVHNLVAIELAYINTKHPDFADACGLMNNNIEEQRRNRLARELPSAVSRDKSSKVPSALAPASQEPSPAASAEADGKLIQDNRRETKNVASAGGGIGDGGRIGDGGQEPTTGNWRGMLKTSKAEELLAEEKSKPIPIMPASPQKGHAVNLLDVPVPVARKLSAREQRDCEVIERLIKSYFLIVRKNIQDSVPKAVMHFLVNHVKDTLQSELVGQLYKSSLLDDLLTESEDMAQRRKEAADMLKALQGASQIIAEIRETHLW
UniProt Q61644: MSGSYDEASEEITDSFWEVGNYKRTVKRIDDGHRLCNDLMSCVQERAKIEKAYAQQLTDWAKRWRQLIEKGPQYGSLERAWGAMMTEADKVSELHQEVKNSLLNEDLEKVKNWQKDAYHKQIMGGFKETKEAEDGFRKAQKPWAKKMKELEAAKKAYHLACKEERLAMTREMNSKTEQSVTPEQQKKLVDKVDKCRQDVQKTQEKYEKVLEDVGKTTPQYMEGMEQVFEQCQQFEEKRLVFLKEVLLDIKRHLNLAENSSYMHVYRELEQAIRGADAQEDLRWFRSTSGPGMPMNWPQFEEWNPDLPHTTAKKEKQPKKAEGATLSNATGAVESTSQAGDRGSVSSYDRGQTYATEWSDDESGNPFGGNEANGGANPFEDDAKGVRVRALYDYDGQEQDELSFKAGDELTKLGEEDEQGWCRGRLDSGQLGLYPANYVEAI

In experiment [1] the target is GST-syndapin I (UniProt Q9Z0W5). The experiment in a line: pull-down; GST fusion proteins purified from E. coli, coupled to a glutathione-matrix, incubated with lysates of HEK293 cells overexpressing the partner; eluted with 20 mM glutathione; immunoblotting; only the target purified.
The target in experiment [2] is endogenous rhotekin2 from brain lysates (Fig. 3h) (mouse (endogenous in brain, by the methods; the results say rat)) (UniProt Q14B46). The experiment can be described thus: co-IP; endogenous proteins; protein A/G agarose coated with affinity-purified guinea pig anti-rhotekin2 antibodies or non-immune guinea pig IgG, 2 h at 4 °C with brain lysate in IP buffer.
The target in experiment [3] is GST-syndapin I (UniProt Q9Z0W5). The experiment can be described thus: pull-down; GST fusion proteins purified from E. coli, coupled to a glutathione-matrix, incubated with lysates of HEK293 cells overexpressing the partner; eluted with 20 mM glutathione; immunoblotting; only the target purified. The source holds these as a separate data set.

Where two headings read alike, the source gives them in different places. No constants are given. Whether binding was seen depends on the method and setting. Binding seen in cells or lysates may run through a third protein. Some binding calls cover weakened binding; strength is not graded here. For part of these data: Tags and fused reporters may be left off the sequences shown.

As for “(untagged) full-length rhotekin2 (RTKN2 isoform 1) (from UniProt Q14B46-1 1-604)”, in the experiment with GST-syndapin I [1], the binding result was “binds”.

As to “Xpress-tag dynamin-related protein 1 (Xpress-Drp1) (from UniProt O35303 1-755)”, the binding result with GST-syndapin I [1] is “no binding”.

In the case of “endogenous syndapin I from brain lysates (Fig. 3h) (from UniProt Q61644 1-441)”, the binding result in experiment [2] is “binds”.

With “rhotekin2^∆KRAP (untagged full-length rhotekin2 lacking amino acids 492-503) (from UniProt Q14B46-1 1-604)”, the binding result with GST-syndapin I [1] is on record as “no binding”.

B1: myc-tagged dynamin2 (protein, UniProt P39052 1-870)
chain: MGNRGMEELIPLVNKLQDAFSSIGQSCHLDLPQIAVVGGQSAGKSSVLENFVGRDFLPRGSGIVTRRPLILQLIFSKTEYAEFLHCKSKKFTDFDEVRQEIEAETDRVTGTNKGISPVPINLRVYSPHVLNLTLIDLPGITKVPVGDQPPDIEYQIKDMILQFISRESSLILAVTPANMDLANSDALKLAKEVDPQGLRTIGVITKLDLMDEGTDARDVLENKLLPLRRGYIGVVNRSQKDIEGRKDIRAALAAERKFFLSHPAYRHMADRMGTPHLQKTLNQQLTNHIRESLPTLRSKLQSQLLSLEKEVEEYKNFRPDDPTRKTKALLQMVQQFGVDFEKRIEGSGDQVDTLELSGGARINRIFHERFPFELVKMEFDEKDLRREISYAIKNIHGVRTGLFTPDLAFEAIVKKQVVKLKEPCLKCVDLVIQELISTVRQCTSKLSSYPRLREETERIVTTYIREREGRTKDQILLLIDIEQSYINTNHEDFIGFANAQQRSTQLNKKRAIPNQGEILVIRRGWLTINNISLMKGGSKEYWFVLTAESLSWYKDEEEKEKKYMLPLDNLKIRDVEKGFMSNKHVFAIFNTEQRNVYKDLRQIELACDSQEDVDSWKASFLRAGVYPEKDQAENEDGAQENTFSMDPQLERQVETIRNLVDSYVAIINKSIRDLMPKTIMHLMINNTKAFIHHELLAYLYSSADQSSLMEESAEQAQRRDDMLRMYHALKEALNIIGDISTSTVSTPVPPPVDDTWLQNTSSHSPTPQRRPVSSVHPPGRPPAVRGPTPGPPLIPMPVGATSSFSAPPIPSRPGPQNVFANNDPFSAPPQIPSRPARIPPGIPPGVPSRRAPAAPSRPTIIRPAEPSLLD
On to B1, for which the binding result with GST-syndapin I [3] is listed as “binds”.

B2: myc-tagged dynamin1 (protein, UniProt P21575 1-864)
chain: MGNRGMEDLIPLVNRLQDAFSAIGQNADLDLPQIAVVGGQSAGKSSVLENFVGRDFLPRGSGIVTRRPLVLQLVNSTTEYAEFLHCKGKKFTDFEEVRLEIEAETDRVTGTNKGISPVPINLRVYSPHVLNLTLVDLPGMTKVPVGDQPPDIEFQIRDMLMQFVTKENCLILAVSPANSDLANSDALKIAKEVDPQGQRTIGVITKLDLMDEGTDARDVLENKLLPLRRGYIGVVNRSQKDIDGKKDITAALAAERKFFLSHPSYRHLADRMGTPYLQKVLNQQLTNHIRDTLPGLRNKLQSQLLSIEKEVDEYKNFRPDDPARKTKALLQMVQQFAVDFEKRIEGSGDQIDTYELSGGARINRIFHERFPFELVKMEFDEKELRREISYAIKNIHGIRTGLFTPDLAFEATVKKQVQKLKEPSIKCVDMVVSELTSTIRKCSEKLQQYPRLREEMERIVTTHIREREGRTKEQVMLLIDIELAYMNTNHEDFIGFANAQQRSNQMNKKKTSGNQDEILVIRKGWLTINNIGIMKGGSKEYWFVLTAENLSWYKDDEEKEKKYMLSVDNLKLRDVEKGFMSSKHIFALFNTEQRNVYKDYRQLELACETQEEVDSWKASFLRAGVYPERVGDKEKASETEENGSDSFMHSMDPQLERQVETIRNLVDSYMAIVNKTVRDLMPKTIMHLMINNTKEFIFSELLANLYSCGDQNTLMEESAEQAQRRDEMLRMYHALKEALSIIGDINTTTVSTPMPPPVDDSWLQVQSVPAGRRSPTSSPTPQRRAPAVPPARPGSRGPAPGPPPAGSALGGAPPVPSRPGASPDPFGPPPQVPSRPNRAPPGVPSRSGQASPSRPESPRPPFDL
As to B2, the binding result with GST-syndapin I [3] is on record as “binds”.
